# Source: PubChem BioAssay AID504845 (National Center for Advancing Translational Sciences (NCATS), 2011)
# The campaign covered roughly 390,000 compounds. About 150 (0.038%) were called active. Inconclusive means that the source gave no clear call. Such entries were picked first, then a sample of the others. Calls come from the whole dose curve; as a rule, active = well fitted inhibition curve with a large enough effect; inconclusive = small, poorly fitted or top-dose-only effect; inactive = no such curve, though single readings can be large or run the other way. Potencies of inconclusive entries are doubtful fits and often do not repeat.
# Molecular target: Regulator of G-protein signaling 4 (Homo sapiens) (UniProt P49798)
# Test: Inhibitors of Regulator of G Protein Signaling (RGS) 4: qHTS; note: nearly all actives have a fitted effect of over 75% in size
# Details: Transcreener GDP fluorescence polarization, RGS4-accelerated GTP hydrolysis; series mostly up to 114 µM; activity change, negative = inhibition: at the top concentration
# In short: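 MLSMR compounds (23 nl, pin-transferred) preincubated 10 min at room temperature with a 500nM (2x) first reagent, then RGS4 at 900nM (2x) plus Transcreener GDP mix added; fluorescence polarization (620/688 nm) read before and after 90 min at 30 °C.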
# % is set by controls: 0 for no effect and ±100 for the full control effect; potency is the fitted concentration of half-maximal effect; tags give direction and shape of the fitted curve.
# UniProt P49798, sequence (P49798 whole entry, looked up): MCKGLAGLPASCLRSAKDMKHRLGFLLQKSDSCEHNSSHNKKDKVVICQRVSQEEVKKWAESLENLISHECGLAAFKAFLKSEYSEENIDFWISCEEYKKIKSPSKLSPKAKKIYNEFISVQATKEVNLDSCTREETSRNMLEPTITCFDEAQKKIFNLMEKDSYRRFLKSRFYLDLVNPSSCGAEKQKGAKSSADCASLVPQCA
SMILES,Potency,"activity change, negative = inhibition"
Cc1ccc(O)c(N=Cc2cc(Cc3ccccc3)cc([N+](=O)[O-])c2O)c1,"inconclusive: 79.4 µM [inhibitor, partial curve, poor fit]",
CC(Sc1nc(-c2ccccc2)cc(C(F)(F)F)n1)C(=O)O (stereo not given),"inconclusive: 44.7 µM [inhibitor, partial curve, poor fit]",
COc1ccccc1NC(=O)Nc1nc(CC(=O)Nc2cc(F)ccc2F)cs1,"inconclusive: 79.4 µM [inhibitor, single point]",
COc1ccc(-c2[nH]n(-c3ccc([N+](=O)[O-])cc3)c(=O)c2C=NCc2ccncc2)cc1,"inconclusive: 17.8 µM [inhibitor, full curve, poor fit]",
O=C(COC(=O)c1cccc(S(=O)(=O)N2CCc3ccccc3C2)c1)NCc1ccco1,"inconclusive: 89.1 µM [inhibitor, single point]",
CCOc1ccc(NC(=O)CNC(=O)c2nn(-c3ccc(OC)c(OC)c3)c(=O)c3ccccc23)cc1,"inconclusive: 89.1 µM [inhibitor, partial curve, poor fit]",
O=C(c1cc(Cl)ccc1Cl)N1CCN(c2ccccn2)CC1,,inactive: -14.2%
O=C(CSc1ncccn1)Nc1ccc2[nH]c(=O)[nH]c2c1,,inactive: -6.55%
O=C(NCc1ccco1)c1cc2cc3ccc(Cl)cc3nc2o1,"inconclusive: 31.6 µM [inhibitor, partial curve, poor fit]",
Fc1ccccc1-c1ccc(-c2nc3ccc(Cl)cn3c2Nc2ccc(Cl)cc2)o1,"inconclusive: 17.8 µM [inhibitor, full curve, poor fit]",
COc1ccc(C(C)=O)cc1COC(=O)c1cc(C)oc1C,,inactive: -16.9%
CCN(CC)S(=O)(=O)c1cccc(N=NC2=C(O)CCCC2=O)c1,,inactive: -14.7%
O=C(C[C@H]1C[C@H](C(=O)N2CCOCC2)[C@@]2(CCC3CCCC3)c3[nH]c4cc(-c5ccco5)ccc4c3CCN2C1=O)NCc1cccc(C(F)(F)F)c1,"inconclusive: 17.8 µM [inhibitor, partial curve, poor fit]",
O=C(c1ccc(F)cc1)c1ccc(N2CCCCC2)cc1,,inactive: 19.5%
COc1ccc(CNc2ccc3c(c2)ncn3C)cc1OC,,inactive: -33.2%
OC(COc1cccc2ccccc12)CN1CCN(c2ccccc2)CC1 (stereo not given),,inactive: 6.16%
N[C@@H]1CCN(O)C1=O,"inconclusive: 33.6 µM [inhibitor, partial curve, poor fit]",
C/C(=N/NC(=O)c1cccs1)c1ccc(NC(=O)COc2ccc(Cl)cc2Cl)cc1,"inconclusive: 39.8 µM [inhibitor, partial curve, poor fit]",
CCN1CCCn2c1nc1c2c(=O)n(C)c(=O)n1C,"inconclusive: 89.1 µM [inhibitor, single point]",
CC(C)c1ccc(NC(=O)C2CCCN2S(=O)(=O)c2ccc3nc(-c4ccccc4)[nH]c3c2)cc1 (stereo not given),,inactive: 4.73%
COC(=O)c1ccc2c(=O)n(Cc3ccc(C(=O)NC(C)C)cc3)c(=S)[nH]c2c1,"inconclusive: 89.1 µM [inhibitor, partial curve, poor fit]",
Cc1cccc(OCC(=O)Nc2ccc3c(c2)nc(CN2CCCCC2)n3C)c1,inactive,

SMILES,Potency,"activity change, negative = inhibition"
O=C(/C=C/c1ccncc1)c1ccc2c(c1)OCCO2,"inconclusive: 50.1 µM [inhibitor, partial curve, poor fit]",
C[C@@H](C(=O)Nc1nc(-c2ccccn2)cs1)N1C(=O)C2CCCCC2C1=O (stereo not given in full),"inconclusive: 79.4 µM [inhibitor, partial curve, poor fit]",
CN1CCN(C(c2ccc(C(F)(F)F)cc2)c2ccc3cccnc3c2O)CC1 (stereo not given),"inconclusive: 79.4 µM [inhibitor, partial curve, poor fit]",
O=C(O)c1ccc(Nc2nc(-c3ccc([N+](=O)[O-])cc3)nc3ccccc23)cc1,"inconclusive: 17.8 µM [inhibitor, full curve, poor fit]",
Cc1ccc(S(=O)(=O)Nc2ccccc2CNc2ncc(Br)cc2Br)cc1,,inactive: -1.23%
COc1ccc(/C=C2/CSC/C(=C/c3ccc(OC)c(OC)c3)C2=O)cc1OC,,inactive: -33.4%
O=C(Nc1ccccc1Br)c1ccc(OC(=S)N2CCOCC2)cc1,"inconclusive: 44.7 µM [inhibitor, partial curve, poor fit]",
O=C(CNC(=O)c1ccc(Cl)cc1Cl)OCCCn1c(=O)[nH]c2ccccc21,"inconclusive: 89.1 µM [inhibitor, single point]",
CCC(C)(C)NC(=O)C(c1ccccn1)N(C(=O)c1csnn1)C1CCCCC1 (stereo not given),,inactive: -20.7%
COCCNC(=O)CCCn1c(SCc2ccccc2Cl)nc2c(sc3ccccc32)c1=O,,inactive: -4.95%
O=C(CCN1C(=O)c2ccncc2C1=O)Nc1ccc2c(c1)OCCO2,"inconclusive: 89.1 µM [inhibitor, partial curve, poor fit]",
Cn1ccnc1C(=O)c1cc(SCC(=O)NCc2ccccc2)nc2ccccc12,"inconclusive: 79.4 µM [inhibitor, partial curve, poor fit]",
Cc1cc(C)c2oc(-c3ccc(C)c(NC(=O)/C=C/c4ccco4)c3)nc2c1,"inconclusive: 31.6 µM [inhibitor, full curve, poor fit]",
Nc1ccc(C(=O)N2CCN(S(=O)(=O)c3ccc(Cl)cc3)CC2)cc1[N+](=O)[O-],"inconclusive: 89.1 µM [inhibitor, single point]",
O=C(CN(c1ccccc1)S(=O)(=O)c1ccccc1)Nc1ccc(F)cc1,"inconclusive: 79.4 µM [inhibitor, partial curve, poor fit]",
COC(=O)CCC/C=C1/SCC(NC(=O)c2ccccc2)C1=O (stereo not given),"inconclusive: 50.1 µM [inhibitor, partial curve, poor fit]",
CN(C)c1ccc(/C=N/N2C(=S)SC(C)(C)C2N(O)C(=O)Nc2ccc([N+](=O)[O-])cc2)cc1 (stereo not given),"inconclusive: 79.4 µM [inhibitor, single point]",
CCOC(=O)c1sc(=S)n(C)c1NC(=O)c1ccccc1C,"inconclusive: 89.1 µM [inhibitor, partial curve, poor fit]",
O=C(N/N=C\c1ccc(Cl)s1)c1ccc(Cn2cccn2)o1,"inconclusive: 79.4 µM [inhibitor, partial curve, poor fit]",
O=C(Nc1ccc(-c2nc3ccccc3[nH]2)cc1)c1ccc2c(c1)OCO2,"inconclusive: 50.1 µM [inhibitor, partial curve, poor fit]",
Cc1cc2nc(-c3ccc(SCc4ccc(C(=O)O)cc4)nc3)[nH]c2cc1C,"inconclusive: 100 µM [inhibitor, partial curve, poor fit]",
COC(=O)CSc1nnc(-c2ccccc2OC)n1-c1ccc(C)cc1,"inconclusive: 70.8 µM [inhibitor, partial curve, poor fit]",

SMILES,Potency,"activity change, negative = inhibition"
O=C(NNS(=O)(=O)c1ccc(Cl)cc1)c1ccc(S(=O)(=O)N2CCCCC2)cc1,"inconclusive: 100 µM [inhibitor, single point]",
CCc1ccc(Oc2ncnc(N)c2[N+](=O)[O-])cc1,,inactive: -15%
O=C(c1ccc(S(=O)(=O)Cc2ccccc2F)c([N+](=O)[O-])c1)N1CCCC1,"inconclusive: 79.4 µM [inhibitor, partial curve, poor fit]",
COC(=O)C(C(=O)OC)=C(/C=C/C=C/N(C)C)N(C)C,,inactive: -40.1%
CCC1=Nc2cc(C(=O)NCc3ccc(C)cc3)ccc2Sc2ccc(C)cc21,,inactive: -11.1%
CCc1ccc(NC(=O)c2ccc3c(=O)n4c(nc3c2)CCCCC4)cc1,,inactive: 13.7% [at 56.9 µM]
NC(=O)c1sc2nc(-c3cccs3)ccc2c1N,"inconclusive: 79.4 µM [inhibitor, partial curve, poor fit]",
COC(=O)c1ccc(Cn2c(O)c(N=NC(N)=S)c3ccccc32)o1,,inactive: -13.5%
COc1ccccc1NC(=O)CSc1nc(=O)n2cc(C)ccc2n1,"inconclusive: 89.1 µM [inhibitor, single point]",
CCOC(=O)c1cc(-c2ccc(N3CCOCC3)cc2)nn1-c1ccccc1C(=O)O,"inconclusive: 50.1 µM [inhibitor, partial curve, poor fit]",
CCCCOc1ccc(S(=O)(=O)NCc2csc(-c3ccc(OC)cc3)n2)cc1,,inactive: 22.8%
CCCCCOc1ccc(CSc2ncn[nH]2)cc1,,inactive: -3.99%
Cc1ccc(-n2c(C)cc(C(=O)COC(=O)c3ccc[nH]c3=O)c2C)cc1,,inactive: -13.4%
Cc1ccc2nc(CSc3nnc(-c4ccco4)n3-c3ccccc3)cc(=O)n2c1,,inactive: 3.77%
NS(=O)(=O)c1ccc(N/N=C/c2ccc(O)c(O)c2O)c([N+](=O)[O-])c1,"inconclusive: 100 µM [inhibitor, single point]",
Cc1cccc(OCc2nnc(N)s2)c1,"inconclusive: 44.7 µM [inhibitor, partial curve, poor fit]",
COc1ccc(CCNC(=O)CCc2cn(Cc3ccc(C)cc3)c3ccccc23)c(OC)c1OC,,inactive: 28.5%
O=C(NC(=S)Nc1ccccc1C(=O)O)c1ccc(-c2ccc(Br)cc2)o1,"inconclusive: 56.2 µM [inhibitor, partial curve, poor fit]",
COc1ccc2c(-c3ccccc3)cc(SC(C)C(N)=O)nc2c1 (stereo not given),"inconclusive: 89.1 µM [inhibitor, single point]",
CCOC(=O)c1c(N2C(=O)C=CC2=O)sc(C)c1C,"inconclusive: 17.8 µM [inhibitor, full curve, poor fit]",
C=C1C(=O)O[C@H]2[C@H]1[C@H](OC(=O)/C(C)=C\C)C[C@]1(CO1)[C@@H]1[C@H](OC(C)=O)C=C(C)[C@]21O,,inactive: -44.7%
